# Laboratory results: PubChem BioAssay AID588591 (National Center for Advancing Translational Sciences (NCATS), 2011)
# Screen size: about 390,000 compounds; about 4,700 (1.2%) were called active. The shares of active, inactive and inconclusive entries below differ from those in the screen. Calls come from the whole dose curve; as a rule, active = well fitted inhibition curve with a large enough effect; inconclusive = small, poorly fitted or top-dose-only effect, or another doubt; inactive = no such curve, though single readings can be large or run the other way. Potencies beside an inconclusive call are fits to weak or partial responses and may not hold up.
# Molecular target: DNA polymerase eta (Homo sapiens) (UniProt Q9Y253)
# Sequence of UniProt Q9Y253 (Q9Y253 whole entry, looked up): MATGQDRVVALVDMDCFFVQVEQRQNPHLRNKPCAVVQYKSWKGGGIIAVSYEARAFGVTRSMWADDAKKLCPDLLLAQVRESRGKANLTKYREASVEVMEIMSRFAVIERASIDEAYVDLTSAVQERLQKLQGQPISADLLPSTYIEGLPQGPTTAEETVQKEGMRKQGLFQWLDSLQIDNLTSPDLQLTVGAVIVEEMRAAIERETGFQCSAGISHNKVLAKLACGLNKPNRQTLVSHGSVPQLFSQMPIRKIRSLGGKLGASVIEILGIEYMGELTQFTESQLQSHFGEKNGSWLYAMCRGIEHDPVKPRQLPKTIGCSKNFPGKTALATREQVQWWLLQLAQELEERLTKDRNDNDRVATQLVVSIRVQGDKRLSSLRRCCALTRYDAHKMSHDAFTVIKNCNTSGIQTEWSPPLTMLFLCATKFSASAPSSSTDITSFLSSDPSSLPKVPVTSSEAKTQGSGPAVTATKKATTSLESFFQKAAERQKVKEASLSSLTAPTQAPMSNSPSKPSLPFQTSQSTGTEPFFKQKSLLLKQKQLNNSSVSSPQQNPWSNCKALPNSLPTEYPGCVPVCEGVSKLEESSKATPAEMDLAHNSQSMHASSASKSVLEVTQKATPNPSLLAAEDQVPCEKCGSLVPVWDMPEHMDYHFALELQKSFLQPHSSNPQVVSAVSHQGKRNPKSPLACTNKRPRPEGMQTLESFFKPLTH
# Test: qHTS for Inhibitors of Polymerase Eta
# Conditions: recombinant Pol eta, fluorescent DNA replication assay; series mostly up to 114 µM
# In short: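 Fluorescent replication assay: 50 nM final substrate added after a 15 min room-temperature compound preincubation with 10 nM enzyme. Signal taken at 0 min and again at 10 min.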
# Potency is the fitted concentration of half-maximal effect; tags give direction and shape of the fitted curve.
row,Compound,Potency
1,Cc1ccc(-n2nc3ccc(NC(=O)/C=C/c4ccco4)cc3n2)cc1C,"inconclusive: 89.1 µM [inhibitor, single point]"
2,O=C(O)c1ccc(S(=O)(=O)c2ccc3c(c2)C(=O)N(Cc2ccco2)C3=O)cc1,"inconclusive: 89.1 µM [inhibitor, partial curve, poor fit]"
3,O=[N+]([O-])c1ccc2cc[nH]c2c1,"inconclusive: 50.1 µM [inhibitor, partial curve]"
4,CC(C)C(NC(=O)c1ccc(C(C)(C)C)cc1)C(=O)OCC(=O)NC(=O)Cc1ccccc1 (configuration not stated),"inconclusive: 79.4 µM [inhibitor, partial curve, poor fit]"
5,CCc1cccc(-n2c(=O)c3cccnc3n2CC(=O)NCc2ccccc2Cl)c1,inactive
6,C=CCNC(=O)c1onc(CSc2cccc(OCC)c2)c1C(=O)O,"inconclusive: 35.5 µM [inhibitor, single point]"
7,Cc1nn(-c2ccccc2)c(C)c1C(=O)OCC(=O)Nc1ccccc1C(F)(F)F,"inconclusive: 89.1 µM [inhibitor, single point]"
8,Cc1ccc(CCC(=O)Nc2ncc(Cc3cc(Cl)ccc3Cl)s2)o1,"inconclusive: 28.2 µM [inhibitor, single point]"
9,COc1ccc(NC(=O)NC(C)(C(F)(F)F)C(F)(F)F)cc1,"inconclusive: 79.4 µM [inhibitor, partial curve, poor fit]"
10,COc1ccccc1NC(=O)c1cc2ccccc2o/c1=N\O,"inconclusive: 35.5 µM [inhibitor, partial curve]"
11,Cc1c(N=Nc2ccc(O)cc2)c(=O)n(-c2ccccc2)n1C,inactive
12,CCOC(=O)Cn1c(=O)n(C2CCCCC2)c2nc(-c3c(F)cccc3Cl)nc(C(N)=O)c21,"inconclusive: 56.2 µM [inhibitor, partial curve, poor fit]"
13,O=C(N/N=C/c1cccc(O)c1)c1ccc(-n2cnnn2)cc1,inactive
14,COc1ccc(NC(=O)CSc2nc3[nH]c(=O)cc(O)c3s2)cc1OC,"inconclusive: 1.78 µM [inhibitor, full curve, poor fit]"
15,O=C(CSc1nnc(-c2ccco2)o1)c1ccc[nH]1,"inconclusive: 44.7 µM [inhibitor, partial curve, poor fit]"
16,Cn1nc(C(C)(C)C)c([N+](=O)[O-])c1C(=O)Nc1cccc2ccccc12,"inconclusive: 100 µM [inhibitor, partial curve, poor fit]"
17,CCOC(=O)C1(Cc2ccccc2)CCN(Cc2ccc(C)s2)CC1,"inconclusive: 89.1 µM [inhibitor, partial curve, poor fit]"
